In the supplement of paper PMC6531468:
The other results are listed elsewhere or left out. These are enrichments in a pooled selection; single values are uncertain. Scores sum up all selected molecules that hold the word; the word was not tested alone.

How the values were obtained:
Assay in all cases: 6-mer SELEX enrichment z-score vs GST control; IMP3 is the RNA-binding protein IGF2BP3; higher = more enriched by binding
IMP3 KH1-4 = details: construct: KH1-4 (164-579); SELEX round: R4
Protocol: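 SELEX-seq with GST-tagged IMP3 KH1-4 (Pro164-Lys579) and an N40 RNA pool, round 4. 6-mer z-score of sequence-tag enrichment normalised to the corresponding GST SELEX round; RNA k-mers written as DNA (T for U).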

IMP3 RRM1-2 = details: construct: RRM1-2 (1-163); SELEX round: R2
Protocol: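 SELEX-seq with GST-tagged IMP3 RRM1-2 (Met1-Asn163) and an N40 RNA pool, round 2. 6-mer enrichment z-score normalised to GST SELEX. RNA written as DNA (T = U).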

IMP3 full-length = IMP3 full-length (UniProt O00425); details: construct: FL IMP3 (1-579); SELEX round: R4
Protocol: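 SELEX-seq with GST-tagged full-length IMP3 and an N40 RNA pool, round 4. Each 6-mer is scored as an enrichment z-score of sequence tags containing it, normalised to the matching GST SELEX round. RNA written as DNA (T = U).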

IMP3 KH1-2 = details: construct: KH1-2 (164-376); SELEX round: R4
Protocol: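 SELEX-seq with GST-tagged IMP3 KH1-2 (Pro164-Phe376) and an N40 RNA pool, round 4 (stringent 300/600 mM KCl washes). 6-mer z-score of sequence-tag enrichment normalised to the corresponding GST SELEX round; RNA k-mers written as DNA (T for U).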

Chain of IMP3 KH1-2 (chain, as listed by the source): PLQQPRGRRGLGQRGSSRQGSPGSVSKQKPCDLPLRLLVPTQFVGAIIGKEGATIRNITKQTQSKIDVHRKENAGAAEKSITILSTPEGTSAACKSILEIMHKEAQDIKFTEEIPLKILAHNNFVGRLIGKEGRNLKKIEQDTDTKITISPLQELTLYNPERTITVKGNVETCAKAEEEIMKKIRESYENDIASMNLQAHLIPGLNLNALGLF
Chain of IMP3 KH1-4 (chain, as listed by the source): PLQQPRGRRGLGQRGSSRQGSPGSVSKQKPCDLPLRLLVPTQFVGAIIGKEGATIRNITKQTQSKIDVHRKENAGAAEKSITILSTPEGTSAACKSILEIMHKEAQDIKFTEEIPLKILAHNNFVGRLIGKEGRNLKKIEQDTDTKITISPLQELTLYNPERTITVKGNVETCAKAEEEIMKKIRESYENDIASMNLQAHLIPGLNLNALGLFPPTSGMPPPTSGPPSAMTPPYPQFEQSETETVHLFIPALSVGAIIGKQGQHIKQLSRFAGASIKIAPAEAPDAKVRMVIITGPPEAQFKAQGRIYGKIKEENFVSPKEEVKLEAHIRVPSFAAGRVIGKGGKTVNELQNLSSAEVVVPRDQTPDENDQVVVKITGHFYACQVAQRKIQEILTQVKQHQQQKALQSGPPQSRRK
Chain of IMP3 RRM1-2 (chain, as listed by the source): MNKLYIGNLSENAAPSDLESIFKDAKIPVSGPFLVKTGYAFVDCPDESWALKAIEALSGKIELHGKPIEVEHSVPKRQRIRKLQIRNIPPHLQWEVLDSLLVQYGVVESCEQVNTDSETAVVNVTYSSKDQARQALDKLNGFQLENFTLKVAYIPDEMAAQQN
Chain of UniProt O00425 (O00425 whole entry): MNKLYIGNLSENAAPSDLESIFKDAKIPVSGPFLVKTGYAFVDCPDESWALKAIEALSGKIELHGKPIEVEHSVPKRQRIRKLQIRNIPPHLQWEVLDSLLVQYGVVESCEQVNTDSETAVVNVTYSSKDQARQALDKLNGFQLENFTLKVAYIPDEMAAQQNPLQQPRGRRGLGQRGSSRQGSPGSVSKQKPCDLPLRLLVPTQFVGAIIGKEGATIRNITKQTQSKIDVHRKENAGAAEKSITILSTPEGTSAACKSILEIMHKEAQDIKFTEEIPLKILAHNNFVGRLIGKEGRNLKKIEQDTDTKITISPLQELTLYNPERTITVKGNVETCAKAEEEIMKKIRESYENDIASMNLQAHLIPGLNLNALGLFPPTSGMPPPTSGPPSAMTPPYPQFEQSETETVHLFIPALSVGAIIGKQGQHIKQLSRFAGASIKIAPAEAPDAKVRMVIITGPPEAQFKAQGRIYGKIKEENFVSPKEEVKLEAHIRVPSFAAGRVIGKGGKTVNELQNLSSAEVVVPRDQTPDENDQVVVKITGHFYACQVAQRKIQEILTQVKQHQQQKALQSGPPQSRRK

Row | Sequence | 6-mer SELEX enrichment z-score (IMP3 KH1-4) | 6-mer SELEX enrichment z-score (IMP3 RRM1-2) | 6-mer SELEX enrichment z-score (IMP3 full-length) | 6-mer SELEX enrichment z-score (IMP3 KH1-2)
1 | CGCTGT | -0.091 | 0.065 | 0.075 | 0.077
2 | CTTGCG | -1.12 | 0.173 | -0.617 | -0.964
3 | GACCAC | -0.621 | 1.35 | -0.49 | -0.62
4 | CGCGTT | -0.865 | 0.212 | -0.215 | -0.676
5 | CCCAAT | -1.12 | -0.61 | -1.24 | -1.09
6 | TGTTAA | 0.111 | -0.207 | -0.332 | 0.034
7 | GGACTC | -0.754 | -0.155 | -0.249 | -0.636
8 | TTAATA | 1.55 | -0.12 | 0.195 | 1.42
9 | TACTCA | -0.824 | 0.253 | -0.458 | -0.712
10 | GCCCAT | -0.59 | -0.053 | -0.196 | -0.486
11 | ACAGCG | -2.05 | 0.119 | -0.221 | -1.84
12 | CATGTT | 0.479 | 0.499 | 0.43 | 0.284
13 | CACCGG | -0.096 | 0.065 | 0.982 | -0.216
14 | AGAAAT | 0.413 | -1.22 | -0.722 | 0.292
15 | TTCGGG | -0.614 | 0.332 | -0.134 | -0.476
16 | TTAGTA | 0.171 | 0.14 | -0.07 | 0.07
17 | TTTGGC | -0.035 | 0.386 | 0.031 | -0.025
18 | AGACAT | 0.532 | 0.502 | 0.591 | 0.353
19 | AATCAA | 0.337 | 2.12 | 0.842 | 0.376
20 | TATTAG | 0.888 | 0.223 | 0.284 | 0.678
21 | CAGCTA | -0.181 | 0.274 | 0.175 | -0.088
22 | TCACTC | 0.234 | 1.38 | 0.542 | 0.232
23 | TTAGTT | 0.247 | 0.557 | 0.137 | 0.238
24 | GAGTCT | -0.204 | 0.139 | 0.162 | -0.19
25 | GATAGG | 0.744 | -0.024 | 0.241 | 0.625
26 | AAACAG | -0.29 | -0.135 | 0.022 | 0.03
27 | CACTGT | 0.732 | 0.411 | 0.623 | 0.654

Row | Sequence | 6-mer SELEX enrichment z-score (IMP3 KH1-4) | 6-mer SELEX enrichment z-score (IMP3 RRM1-2) | 6-mer SELEX enrichment z-score (IMP3 full-length) | 6-mer SELEX enrichment z-score (IMP3 KH1-2)
28 | TCAGCA | 0.23 | 1.21 | 1.42 | 0.167
29 | ATCGCA | 0.968 | 0.27 | 0.871 | 0.741
30 | TTCGTG | -0.26 | 0.228 | -0.232 | -0.266
31 | TGGGAG | 0.606 | -0.056 | 0.404 | 0.684
32 | CTGACT | -0.308 | -0.367 | -0.685 | -0.223
33 | CGGGCG | -2.22 | 0.151 | -0.339 | -1.82
34 | AGTGTT | -0.353 | 0.201 | -0.3 | -0.331
35 | TTGATC | 0.148 | 0.172 | -0.058 | 0.033
36 | GCGCCA | -0.414 | -0.033 | 0.663 | -0.364
37 | CTATAT | 1.55 | 0.097 | 0.341 | 1.37
38 | TCCGTT | 0.272 | 0.166 | 0.169 | 0.47
39 | TATAGT | 0.75 | 0.273 | 0.216 | 0.513
40 | GGTGAT | 0.426 | 0.09 | 0.198 | 0.361
41 | TGGGGG | 1.2 | 0.377 | 0.559 | 1.79
42 | TACTAC | 0.507 | 0.107 | -0.132 | 0.654
43 | TAATCA | 1.22 | 1.52 | 1.06 | 1.16
44 | CATTAC | 1.31 | 1.82 | 1.4 | 1.49
45 | GTGCTT | -0.174 | 0.308 | -0.093 | -0.1
46 | GAGAGC | -1.29 | -0.321 | -0.359 | -1.17
47 | TCCTTC | 0.876 | 0.365 | 0.118 | 0.797
48 | ACCGTG | -0.553 | -0.681 | -0.439 | -0.59
49 | CTGTTC | 0.492 | 0.166 | 0.176 | 0.479
50 | CCCTCT | -0.073 | 0.087 | -0.334 | -0.046
51 | CTAGGC | 0.137 | 0.51 | 0.467 | 0.127
52 | ATTTTG | 0.146 | 0.18 | -0.096 | 0.128
53 | GTGCCG | -0.492 | -0.172 | 0.087 | -0.398
54 | ACGTTT | -0.603 | -0.047 | -0.42 | -0.536
